Source: PubChem BioAssay (NCATS)
Inconclusive means that the source gave no clear call. Such entries were picked first, then a sample of the others. For part of these data: A potency beside an inconclusive call is a rough fit, not a confirmed value. Calls of active or inactive are those of the source. Unless noted, calls come from the whole dose curve; as a rule, active = well fitted curve in the direction sought with a large enough effect; inconclusive = small, poorly fitted or top-dose-only effect, or another doubt; inactive = no such curve, though single readings can be large; an effect the other way counts as inactive or inconclusive.

Columns and labels:
[1] = qHTS of pediatric cancer cell lines to identify multiple opportunities for drug repurposing: Primary screen for SK-N-SH cells (AID 1347098); note: % is set by controls: 0 for no effect and ±100 for the full control effect; nearly all actives have a fitted effect of over 65% in size
Procedure, shortened: (§1)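 Cells (500-1,000/well) rested 5 h, then received compounds for 48 h; metabolically active cells were measured by CellTiter-Glo luminescence. Final concentrations spanned up to 46 µM (MIPE, 11-point) or 0.59 nM-46 µM (NPC, 8-point) in primary screens, 11-point in follow-ups.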

[2] = qHTS of pediatric cancer cell lines to identify multiple opportunities for drug repurposing: Primary screen for Rh18 cells (AID 1347102); note: % is set by controls: 0 for no effect and ±100 for the full control effect; nearly all actives have a fitted effect of over 65% in size
Procedure, shortened: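 Cells (500-1,000/well) in growth media were settled 5 h at 37 degrees C, then given compounds for 48 h. Viability was read as CellTiter-Glo luminescence. Primary runs used MIPE at 11 points (0.78 nM-46 µM) and NPC at 8 points (0.59 nM-46 µM); follow-ups used 11 points.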

[3] = qHTS of pediatric cancer cell lines to identify multiple opportunities for drug repurposing: Primary screen for RD cells (AID 1347104);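 note: plate controls were DMSO for no effect and bortezomib for full effect; nearly all actives have a fitted effect of over 55% in size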
Procedure, shortened: (§2)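 Readout: CellTiter-Glo luminescence, 48 h treatment. Controls DMSO (neutral) and bortezomib 2.3 µM final (positive). Potency and efficacy taken from primary-screen concentration-response curves.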

[4] = qHTS of pediatric cancer cell lines to identify multiple opportunities for drug repurposing: Primary screen for Rh41 cells (AID 1347108);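 note: luminescence drop marks cytotoxic hits; nearly all actives have a fitted effect of over 70% in size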
Procedure, shortened: as §2

[5] = Primary qHTS for inhibitors of nuclear receptor binding SET domain protein 2 (NSD2) in an RCH-ACV wild type WT cells (2C) (AID 1645877); conditions: activity change, negative = cell killing: at 44.9 µM (top of the series) unless noted; note: nearly all actives have a fitted effect of over 70% in size; note: potency is the fitted concentration of half-maximal effect; for activity change, negative = cell killing: % is set by controls: 0 for no effect and ±100 for the full control effect
[6] = tested on: OV90; experiment: Primary qHTS to identify gynecologic anti-cancer compounds using libraries of approved drugs and bioactive compounds (AID 1345084); conditions: Gynecologic cancer cell panel viability, ATPlite luminescence, 48 h; series mostly up to 57.5 µM; note: nearly all actives have a fitted effect of over 55% in size; note: potency is the fitted concentration of half-maximal effect
Procedure, shortened: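 Cytotoxicity screen measuring ATP content by luciferase luminescence. Each compound is applied at five concentrations for 48 h at 37 C with 5% CO2.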

[7] = qHTS of pediatric cancer cell lines to identify multiple opportunities for drug repurposing: Primary screen for SK-N-MC cells (AID 1347093); conditions: SK-N-MC viability, CellTiter-Glo luminescence, 48 h; activity change, negative = cytotoxic: at 46 µM (top of the series); note: potency is the fitted concentration of half-maximal effect
Procedure, shortened: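 Metabolically active cells were quantified by ATP-dependent luminescence (CellTiter-Glo, 15 min at room temperature) following 48 h treatment. Cells had been plated at 500-1,000 per well and settled for 5 h beforehand.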

[8] = molecular target: Glutathione peroxidase 1 (Homo sapiens) (UniProt P07203); experiment: Primary qHTS Assay for Inhibitors of Recombinant Selenoprotein Glutathione Peroxidase 1 (GPX1) (AID 1845191); note: potency is the fitted concentration of half-maximal effect; nearly all actives have a fitted effect of over 65% in size
Chain of UniProt P07203 (P07203 whole entry, looked up): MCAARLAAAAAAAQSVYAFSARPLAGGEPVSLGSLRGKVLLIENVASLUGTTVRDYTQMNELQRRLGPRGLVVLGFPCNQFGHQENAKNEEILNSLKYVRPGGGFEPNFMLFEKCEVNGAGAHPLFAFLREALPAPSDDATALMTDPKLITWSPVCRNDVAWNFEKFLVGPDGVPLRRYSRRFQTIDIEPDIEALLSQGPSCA
Procedure, shortened: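 Recombinant GPX1 (10 nM final) was preincubated with compound for 30 min at room temperature, then reacted with 1 mM GSH, 0.5 mM CHP, 0.5 mM NADPH and 100 nM glutathione reductase; NADPH fluorescence (340/450 nm) was read at 0 and 15 min.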

[9] = molecular target: Phospholipid hydroperoxide glutathione peroxidase GPX4 (Homo sapiens) (UniProt P36969); experiment: Primary qHTS Assay for Inhibitors of Recombinant Selenoprotein Glutathione Peroxidase 4 (GPX4) (AID 1845192); conditions: activity change, negative = inhibition: at 50 µM (top of the series) unless noted; note: potency is the fitted concentration of half-maximal effect; nearly all actives have a fitted effect of over 65% in size
Chain of UniProt P36969 (P36969 whole entry, looked up): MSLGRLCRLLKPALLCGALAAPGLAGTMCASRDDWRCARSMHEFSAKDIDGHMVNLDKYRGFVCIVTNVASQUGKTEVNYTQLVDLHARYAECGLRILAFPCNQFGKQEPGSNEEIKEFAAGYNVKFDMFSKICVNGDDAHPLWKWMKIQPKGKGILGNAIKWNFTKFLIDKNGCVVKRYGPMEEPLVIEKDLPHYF
Procedure, shortened: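 GR-coupled readout: 100 nM GR, 1 mM GSH, 0.5 mM NADPH; NADPH fluorescence (ex 340/em 450 nm) read at t=0 and after 15 min RT. GPX4 200 nM, preincubated 30 min with compound; substrate 0.5 mM CHP.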

[10] = Drug repurposing screens with cells derived from glioblastoma tumor samples (AID 1345199); conditions: GBM patient neurospheres viability, ATP luminescence, 48 h; Potency: tumour line A unless noted; activity, negative = cell killing: at 46 µM (top of the series), tumour line A unless noted; note: nearly all actives have a fitted effect of over 40% in size; note: potency is the fitted concentration of half-maximal effect; for activity, negative = cell killing: % is set by controls: 0 for no effect and ±100 for the full control effect
Procedure, shortened: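 Four patient lines of CD133+ GBM neurospheres were screened at several concentrations; hits were retested in those lines plus three slower-growing GBM lines, using 48-hour treatment and ATP-based viability.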

[11] = NFAT Signaling Pathway (AID 444; active = well fitted curve in either direction with a large enough effect, not every such curve was filed as active; inconclusive = small, poorly fitted or top-dose-only effect, or another doubt;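 note: carbachol stimulus at about its EC50 of 1 µM final; % is set by controls: 0 for no effect and ±100 for the full control effect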); conditions: Jurkat NFAT-bla M1, carbachol, beta-lactamase ratio, 5 h; at 17.2 µM (top of the series)
Procedure, shortened: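 Jurkat cells carrying an NFAT-driven β-lactamase reporter and co-transfected muscarinic M1 receptor were treated with compound plus carbachol (1 uM final, an EC50 level) for 5 h at 37 °C. CCF4 loading followed for 1 h at RT; 460/530 nm ratio gave %activity.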

[12] = qHTS Assay for Lipid Storage Modulators (AID 1519; calls by dose curve; note: % is set by controls: 0 for no effect and ±100 for the full control effect); conditions: Drosophila S3 cells, BODIPY lipid droplet/cell ratio, laser cytometry, cells loaded with oleic acid; activity change, negative = inhibition: at 57.5 µM (top of the series) unless noted
Procedure, shortened: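 Cells seeded at 5,000 per well were treated with compounds over a concentration series and loaded with oleic acid (400 uM, as added). Lipid droplet fluorescence (488 nm excitation, 500-530 nm channel) was read by laser-scanning cytometry and normalized to 20 uM Triacsin C.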

[13] = molecular target: Ubiquitin carboxyl-terminal hydrolase 1 (Homo sapiens) (UniProt O94782); experiment: Inhibitors of USP1/UAF1: Pilot qHTS (AID 504865);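 note: rhodamine fluorescence freed from ubiquitin-rhodamine substrate followed over time; top concentration of the series differs between compounds; % is set by controls: 0 for no effect and ±100 for the full control effect; nearly all actives have a fitted effect of over 35% in size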
Chain of UniProt O94782 (O94782 whole entry, looked up): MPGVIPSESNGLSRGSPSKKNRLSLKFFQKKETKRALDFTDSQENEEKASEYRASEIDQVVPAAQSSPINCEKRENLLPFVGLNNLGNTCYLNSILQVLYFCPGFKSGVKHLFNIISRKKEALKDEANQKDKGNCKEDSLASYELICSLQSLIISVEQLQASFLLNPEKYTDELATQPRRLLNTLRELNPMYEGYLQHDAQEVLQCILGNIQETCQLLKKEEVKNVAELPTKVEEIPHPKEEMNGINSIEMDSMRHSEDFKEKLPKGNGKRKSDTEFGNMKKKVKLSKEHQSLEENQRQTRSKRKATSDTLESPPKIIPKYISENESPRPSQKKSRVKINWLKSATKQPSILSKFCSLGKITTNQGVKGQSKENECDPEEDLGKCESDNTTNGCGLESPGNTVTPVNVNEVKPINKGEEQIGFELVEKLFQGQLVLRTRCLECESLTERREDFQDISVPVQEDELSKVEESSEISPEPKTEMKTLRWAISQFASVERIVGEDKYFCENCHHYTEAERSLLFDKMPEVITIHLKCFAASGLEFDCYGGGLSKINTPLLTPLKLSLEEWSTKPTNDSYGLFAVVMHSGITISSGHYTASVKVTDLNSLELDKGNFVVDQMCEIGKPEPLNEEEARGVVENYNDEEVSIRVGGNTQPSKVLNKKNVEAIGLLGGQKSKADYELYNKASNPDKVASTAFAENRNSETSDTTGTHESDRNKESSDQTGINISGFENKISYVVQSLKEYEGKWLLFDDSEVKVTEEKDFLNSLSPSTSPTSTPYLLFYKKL
Procedure, shortened: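 Deubiquitinase activity followed as kinetic rhodamine fluorescence release from 150 nM Ub-Rho. 1 nM USP1/UAF1 with compound, after 15 min room-temperature preincubation, in HEPES pH 7.8 buffer containing TCEP, EDTA, BSA and Tween-20.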

[14] = molecular target: Voltage-gated inwardly rectifying potassium channel KCNH2 (Homo sapiens) (UniProt Q12809); experiment: qHTS Assay for Small Molecule Inhibitors of the Human hERG Channel Activity (AID 588834);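 note: potency is the fitted concentration of half-maximal effect; lower thallium flux fluorescence means stronger hERG block; nearly all actives have a fitted effect of over 50% in size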
Chain of UniProt Q12809 (Q12809 whole entry, looked up): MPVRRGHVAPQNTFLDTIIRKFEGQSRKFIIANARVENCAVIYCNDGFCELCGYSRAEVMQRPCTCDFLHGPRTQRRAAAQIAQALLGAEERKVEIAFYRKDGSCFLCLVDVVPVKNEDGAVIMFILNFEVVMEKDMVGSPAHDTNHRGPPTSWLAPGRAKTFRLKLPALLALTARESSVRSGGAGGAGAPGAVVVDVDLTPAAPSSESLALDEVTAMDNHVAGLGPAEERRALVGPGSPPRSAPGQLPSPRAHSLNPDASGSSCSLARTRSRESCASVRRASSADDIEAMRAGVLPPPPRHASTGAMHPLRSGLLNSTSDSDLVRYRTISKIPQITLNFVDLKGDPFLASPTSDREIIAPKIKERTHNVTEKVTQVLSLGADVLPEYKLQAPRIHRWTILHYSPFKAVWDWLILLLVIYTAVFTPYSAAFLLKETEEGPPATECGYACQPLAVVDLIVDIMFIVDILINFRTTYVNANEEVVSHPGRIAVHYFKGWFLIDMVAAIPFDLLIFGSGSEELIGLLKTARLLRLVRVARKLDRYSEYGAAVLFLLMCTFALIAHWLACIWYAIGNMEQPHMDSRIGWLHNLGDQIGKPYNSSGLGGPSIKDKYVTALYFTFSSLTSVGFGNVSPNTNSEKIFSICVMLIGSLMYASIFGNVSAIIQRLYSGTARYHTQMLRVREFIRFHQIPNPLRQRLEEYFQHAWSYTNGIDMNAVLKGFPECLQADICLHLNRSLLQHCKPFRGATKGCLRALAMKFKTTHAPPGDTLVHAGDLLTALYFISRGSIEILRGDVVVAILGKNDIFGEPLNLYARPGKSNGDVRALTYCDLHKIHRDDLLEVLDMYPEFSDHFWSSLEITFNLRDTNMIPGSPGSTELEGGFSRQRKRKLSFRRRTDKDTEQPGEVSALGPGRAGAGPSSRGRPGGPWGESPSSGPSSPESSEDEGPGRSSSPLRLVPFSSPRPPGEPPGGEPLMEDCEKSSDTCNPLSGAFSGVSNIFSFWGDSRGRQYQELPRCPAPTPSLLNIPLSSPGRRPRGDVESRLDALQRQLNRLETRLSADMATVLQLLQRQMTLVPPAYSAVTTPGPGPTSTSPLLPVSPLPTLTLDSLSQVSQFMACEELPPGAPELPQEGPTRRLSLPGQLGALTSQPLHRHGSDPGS
Procedure, shortened: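 Kinetic FDSS fluorescence; U2OS + hERG BacMam (~100 virus particles/cell); FluxOR Tl+ flux; ~10 min cpd; AC50 (Hill).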

[15] = qHTS of pediatric cancer cell lines to identify multiple opportunities for drug repurposing: Primary screen for Saos-2 cells (AID 1347097); conditions: Saos-2 viability, CellTiter-Glo ATP luminescence, 48 h; activity change, negative = cytotoxic: at 46 µM (top of the series); note: potency is the fitted concentration of half-maximal effect; nearly all actives have a fitted effect of over 40% in size
Procedure, shortened: as §2

[16] = qHTS of pediatric cancer cell lines to identify multiple opportunities for drug repurposing: Primary screen for NB1643 cells (AID 1347099); conditions: NB1643 neuroblastoma viability, CellTiter-Glo luminescence, 48 h; activity change, negative = cytotoxic: at 46 µM (top of the series);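 note: plate controls were DMSO neutral control for no effect and bortezomib positive control for full effect; nearly all actives have a fitted effect of over 50% in size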
Procedure, shortened: as §2

[17] = qHTS of pediatric cancer cell lines to identify multiple opportunities for drug repurposing: Primary screen for OHS-50 cells (AID 1347103); conditions: OHS-50 osteosarcoma viability, CellTiter-Glo luminescence, 48 h; activity change, negative = cytotoxic: at 57.3 µM (top of the series); note: potency is the fitted concentration of half-maximal effect; nearly all actives have a fitted effect of over 40% in size
Procedure, shortened: as §1

[18] = molecular target: Protein phosphatase 1D (Homo sapiens) (UniProt O15297); experiment: RapidFire Mass Spectrometry qHTS Assay for Modulators of WT P53-Induced Phosphatase 1 (WIP1) (AID 1347424);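 note: amount of dephosphorylated VEPPL-S-QETFS peptide product formed by WIP1; potency is the fitted concentration of half-maximal effect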
Chain of UniProt O15297 (O15297 whole entry, looked up): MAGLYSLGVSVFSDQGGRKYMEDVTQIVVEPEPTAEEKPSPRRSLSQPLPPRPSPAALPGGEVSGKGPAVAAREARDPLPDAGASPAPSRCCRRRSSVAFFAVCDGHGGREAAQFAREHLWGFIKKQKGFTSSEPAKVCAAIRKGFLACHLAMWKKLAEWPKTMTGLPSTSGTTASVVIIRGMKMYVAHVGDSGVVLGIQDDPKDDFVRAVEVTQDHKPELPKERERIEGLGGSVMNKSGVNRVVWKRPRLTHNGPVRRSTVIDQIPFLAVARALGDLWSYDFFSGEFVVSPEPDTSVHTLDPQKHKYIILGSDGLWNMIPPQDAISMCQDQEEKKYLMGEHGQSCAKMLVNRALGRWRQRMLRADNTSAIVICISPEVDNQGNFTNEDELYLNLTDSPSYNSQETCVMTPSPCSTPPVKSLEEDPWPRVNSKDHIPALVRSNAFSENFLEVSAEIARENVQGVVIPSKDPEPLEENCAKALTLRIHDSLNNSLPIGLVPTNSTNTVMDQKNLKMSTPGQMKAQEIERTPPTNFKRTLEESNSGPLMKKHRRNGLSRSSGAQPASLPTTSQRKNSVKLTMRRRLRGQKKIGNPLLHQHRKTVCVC
Procedure, shortened: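 WIP1 (10 nM final) was preincubated 1 h at room temperature with compounds in Tris-HCl pH 7.5, 30 mM MgCl2, TCEP, EGTA, BSA; 2 uM VEPPL-pS-QETFS phosphopeptide was added for 5 min, quenched with formic acid, and dephosphorylated product quantified by RapidFire MS.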

[19] = Counterscreen qHTS for small molecule stabilizers of the endoplasmic reticulum resident proteome: GLuc-NoTag assay (AID 1508627); note: potency is the fitted concentration of half-maximal effect
Procedure, shortened: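 SH-SY5Y cells stably expressing constitutively secreted GLuc (no SERCaMP tag) were pre-incubated 5 h, treated with compound for 19 h, then 100 nM thapsigargin for 4 h at 37C; medium GLuc read by coelenterazine luminescence.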

[20] = Confirmatory qHTS for small molecule stabilizers of the endoplasmic reticulum resident proteome: Secreted ER Calcium Modulated Protein (SERCaMP) assay (AID 1508628); note: potency is the fitted concentration of half-maximal effect; nearly all actives have a fitted effect of over 40% in size
Procedure, shortened: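 SH-SY5Y cells stably expressing GLuc-SERCaMP, treated 16 h with compound (primary 1.53, 7.67, 38.3 uM; confirmation 11 concentrations, up to 76.6 uM), then 100 nM thapsigargin for 4 h. Secreted Gaussia luciferase in medium read by coelenterazine luminescence.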

[21] = Cell Viability qHTS for small molecule stabilizers of the endoplasmic reticulum resident proteome (AID 1508629); conditions: cell viability counter-screen, 100 nM thapsigargin for final 4 h;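 note: potency is the fitted concentration of half-maximal effect; compound exposure about 46 h in total before the viability read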
[22] = Primary qHTS for small molecule stabilizers of the endoplasmic reticulum resident proteome: Secreted ER Calcium Modulated Protein (SERCaMP) assay (AID 1508630); conditions: SH-SY5Y GLuc-SERCaMP (Gaussia luciferase released on ER calcium loss) secretion, thapsigargin, luminescence; activity change, negative = inhibition: at 38.4 µM (top of the series) unless noted; note: potency is the fitted concentration of half-maximal effect
Procedure, shortened: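 GLuc-SERCaMP-expressing SH-SY5Y cells, pretreated 16 h with compound, are challenged with thapsigargin to empty ER calcium stores; after 4 h, coelenterazine is added directly to the medium and luminescence is imaged.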

[23] = Primary qHTS for inhibitors of nuclear receptor binding SET domain protein 2 (NSD2) in an isogenic RCH-ACV NSD2 p.E1099K mutant (9B) (AID 1645876); conditions: activity change, negative = viability loss: at 44.9 µM (top of the series) unless noted; note: nearly all actives have a fitted effect of over 70% in size; note: potency is the fitted concentration of half-maximal effect
[24] = Primary fluorescence-based thiol-reactive (MSTI) qHTS assay for identification of artifact compounds. (AID 1845221)
Procedure, shortened: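 Curve-fitted percent inhibition (4-parameter Hill) derived from fluorescence, Ex 525/Em 598 nm, scaled with Acetyl-MSTI and MSTI; 1 h incubation at room temperature.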

[25] = tested on: Zika virus NS2B-NS3 protease (unlinked complex); experiment: Primary screen GU Rhodamine qHTS for Zika virus inhibitors: Unlinked NS2B-NS3 protease assay (AID 1347159); conditions: Recombinant ZIKV NS2B-NS3 protease, Rhodamine110 substrate fluorescence; activity change, negative = inhibition: at 107 µM (top of the series); note: % is set by controls: 0 for no effect and ±100 for the full control effect; nearly all actives have a fitted effect of over 60% in size
Procedure, shortened: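 Noncovalent NS2B hydrophilic domain–NS3 protease domain complex (25 nM) preincubated 15 min at room temperature with compounds (up to 114 microM) in 10 mM Tris-HCl pH 8.0, 0.01% Tween 20; 1.5 microM Rhodamine110 substrate added, fluorescence change over 15 min fitted to Hill equation.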

[26] = tested on: Zika virus NS2B-NS3 protease (linked construct); experiment: Primary screen NINDS Rhodamine qHTS for Zika virus inhibitors (AID 1347160); note: % is set by controls: 0 for no effect and ±100 for the full control effect; nearly all actives have a fitted effect of over 55% in size
Procedure, shortened: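 Purified linked NS2B-NS3 protease (NS2B hydrophilic domain joined to NS3 protease by flexible linker), 25 nM in 10 mM Tris-HCl pH 8.0, 0.01% Tween 20. Compounds titrated, 15 min preincubation at room temperature; 1.5 microM Rhodamine110 substrate, FITC fluorescence change over 15 min.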

[27] = Primary redox qHTS assay for identification of artifact compounds. (AID 1845223);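 note: 0% = DMSO and 100% = reference compound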
Procedure, shortened: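 Amplex Red (25 uM) and HRP (250 mU/mL) in HBSS, with compounds for 15 min, then 250 uM DTT for 30 min, room temperature, dark. Fluorescence 525/598 nm read; normalized to DMSO and 10 uM DA3003; Hill fit.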
Tags give direction and shape of the fitted curve.

Cc1ccccc1N1CCN(CCc2nnc3n2CCCC3)CC1
inactive: Potency [1] | Potency [2] | Potency [3] | Potency [4] | Potency [5] | Potency [6]

CC1=C(C(=O)O)N2C(=O)[C@@H](NC(=O)[C@H](N)c3ccc(O)cc3)[C@H]2SC1
inconclusive: Potency [7] 0.596 µM [cytotoxic, partial curve, poor fit] | Potency [8] 22.7 µM [inhibitor, partial curve] | Potency [9] 22.4 µM [inhibitor, single point] | activity, negative = cell killing [10] -31.6% [inhibitor] [at 21.3 µM, tumour line A]
inactive: Potency [3] | Potency [5] | Potency [6]

OC(CCN1CCCC1)(c1ccccc1)C1CCCCC1 (centres undefined)
inconclusive: activity change, negative = inhibition [12] 11.4% | Potency [14] 12.6 µM [inhibitor, single point] | Potency [15] 13.3 µM [cytotoxic, partial curve] | Potency [17] 15.5 µM [cytotoxic, partial curve] | Potency [18] 7.08 µM [inhibitor, single point] | Potency [19] 0.501 µM [inhibitor, full curve] | Potency [21] 0.0794 µM [rising, full curve] | Potency [22] 5.62 µM [inhibitor, partial curve, poor fit] | Potency [23] 33.5 µM [inhibitor, single point] | Potency [5] 33.5 µM [inhibitor, single point] | Potency [8] 5.7 µM [inhibitor, full curve] | Potency [6] 28.2 µM [cytotoxic, single point] | Potency [10] 14.1 µM [inhibitor, partial curve, poor fit]
inactive: Potency [13] | Potency [16]
active: activity change, negative = inhibition [11] -89.4% | Potency [20] 3.98 µM

COC(=O)c1ccc(OC)cc1O[C@@H]1O[C@H](CO[C@@H]2OC[C@@H](O)[C@H](O)[C@H]2O)[C@@H](O)[C@H](O)[C@H]1O
inconclusive: Potency [24] 18.4 µM [inhibitor, single point]
inactive: Potency [23] | Potency [6]

CC(O)CCc1ccc(O[C@@H]2O[C@H](CO)[C@@H](O)[C@H](O)[C@H]2O)cc1 (some centres undefined)
inactive: Potency [25] | Potency [26] | Potency [5] | Potency [27]
inconclusive: Potency [24] 16.5 µM [inhibitor, partial curve] | Potency [6] 0.562 µM [rising, partial curve, poor fit]
